# Experimental data from PubChem BioAssay AID686979 (National Center for Advancing Translational Sciences (NCATS), 2013).
# Hit rate of the full screen: of about 420,000 compounds, about 50,000 (12%) were called active. This list was built around the results that the source calls inconclusive (neither active nor inactive); the mix of calls is not that of the screen. Calls follow the shape of the dose curve; as a rule, active = well fitted inhibition curve with a large enough effect; inconclusive = small, poorly fitted or top-dose-only effect; inactive = flat fitted curve, though single readings scatter. No potency is given beside an inconclusive call; the fits are too rough.
# Test: qHTS for Inhibitors of human tyrosyl-DNA phosphodiesterase 1 (TDP1): qHTS in cells in presence of CPT; also: nearly all actives have a fitted effect of over 55% in size
# Conditions: chicken DT40 Tdp1-/-;hTDP1 cells + 20 nM CPT, ATP luminescence, 48 h; series mostly up to 46.2 µM
# Outline: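 Chicken DT40 Tdp1-/- cells complemented with human TDP1, 400 cells/well, exposed to compounds plus 20 nM camptothecin for at least 48 h at 37 C; viability read as ATP content by CellTiter-Glo luminescence.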
# Potency is read from the fitted curve at half-maximal effect; tags tell the direction and shape of the fitted curve.
row,SMILES,Potency
1,O=c1c2c(ncn2C2CCCC2)n(Cc2ccccc2)c(=O)n1CCOc1ccc(Br)cc1,"inconclusive [inhibitor, single point]"
2,Cc1ccc(CNC(=O)c2cc(-c3ccccc3C)nn2CC2CC(c3cccnc3)=NO2)cc1 (stereo not given),"inconclusive [inhibitor, partial curve]"
3,CCOC(=O)N1CCC(N2CCCC(CO)(Cc3ccccc3C)C2)CC1 (stereo not given),inactive
4,CC(Sc1nc(NCc2ccccc2)nc(N2CCOCC2)n1)C(=O)Nc1ccccc1 (stereo not given),"inconclusive [inhibitor, single point]"
5,O=C(OCC(=O)N1CCN(Cc2ccccc2)CC1)c1cc(Cl)ccc1[N+](=O)[O-],inactive
6,O=c1cc(Cn2ccnc2)c2cc(O)ccc2o1,inactive
7,NC(=O)CC(c1ccccc1)c1ccco1 (stereo not given),"inconclusive [inhibitor, single point]"
8,COc1cccc(Nc2ncc3nc(C)c(=O)n(C[C@H]4CCCO4)c3n2)c1,inactive
9,Cc1cc(O)c(N=Nc2ccc(C(=O)O)cc2)cc1C,inactive
10,Cc1c(NC(=O)c2cc(-c3ccc(Cl)cc3)on2)c(=O)n(-c2ccccc2)n1C,"inconclusive [inhibitor, partial curve]"
11,COC(=O)c1c(C)[nH]c(C(=O)C(C)OC(=O)c2cc(C)oc2C)c1C (stereo not given),"inconclusive [inhibitor, single point]"
12,CC(=O)Nc1nc(-c2ccccc2)nc(-c2ccccc2OC(C)=O)n1,"inconclusive [inhibitor, single point]"
13,O=C(OCC(=O)N1CCc2ccccc21)c1ccccc1,inactive
14,CCNC(=O)c1ccc(CSc2nc3ccncc3n2Cc2ccc(F)cc2)cc1,"inconclusive [inhibitor, single point]"
15,Cc1ccc(-c2nn(-c3ccccc3)cc2/C=C(\C#N)c2cccc(C#N)c2)o1,"inconclusive [inhibitor, single point]"
16,O=C(CSc1ccc(-c2cccs2)nn1)c1cccs1,"inconclusive [inhibitor, single point]"
17,Cc1ccccc1-c1nnc(SCC(=O)N(C)C2CCCCC2)o1,"inconclusive [inhibitor, single point]"
18,COc1ccc(-c2noc(-c3ccccc3C(=O)Nc3cccc(OC)c3)n2)cc1,"inconclusive [inhibitor, single point]"
19,Cc1oc(-c2cccc(NC(=O)c3ccccn3)c2)nc1CNC(=O)C#Cc1ccccc1,"inconclusive [inhibitor, full curve]"
20,Cc1onc(-c2ccccc2)c1C(=O)Nc1ccccc1NC(=O)c1c(-c2ccccc2)noc1C,active: 14.6 µM
21,Cc1ccc(NC(=O)c2cnc(N3CCN(c4ccccn4)CC3)c3ccccc23)c(Br)c1,active: 14.6 µM
22,C=CCNC(=O)N1CCCC(C(=O)c2cccc(Cl)c2)C1 (stereo not given),"inconclusive [inhibitor, single point]"
23,O=C(NCCN1CCN(c2ccccc2)CC1)Nc1cccc(Cl)c1,"inconclusive [inhibitor, single point]"

row,SMILES,Potency
1,O=C(C1CCCCC1)N1CCN(c2nc(-c3ccc(F)cc3)cs2)CC1,"inconclusive [inhibitor, full curve]"
2,O=C1NCCN1CCNc1nc(NCC2CC2)nc2cc(-c3ccccc3)sc12,"inconclusive [inhibitor, single point]"
3,COC(=O)[C@H](C)N(Cc1ccc(Cl)c(Cl)c1)S(=O)(=O)CCN1CCCC1,"inconclusive [inhibitor, single point]"
4,CCn1c(C(=O)NCc2cc(Br)ccc2OC)cc2oc3ccccc3c21,active: 23.1 µM
5,CCOc1cccc(N(C(=O)Cc2cccs2)C(C(=O)NC2CCCCC2)c2cccn2C)c1 (stereo not given),active: 16.4 µM
6,O=C(CSc1nnc(-c2cccnc2)o1)NNC(=O)c1ccc(Br)cc1,inactive
7,CCc1ccc(Nc2cc(=O)n(C3CCCCC3)c(=O)[nH]2)cc1,"inconclusive [inhibitor, single point]"
8,CC(=O)Nc1ccc2nc(NC(=O)c3cccs3)sc2c1,inactive
9,CCOC(=O)N1CCN(C(=O)C2CCCN(S(=O)(=O)c3ccc(OCC)cc3)C2)CC1 (stereo not given),"inconclusive [inhibitor, partial curve]"
10,COc1ccc(-n2nc3cc(C)c(NC(=S)NC(=O)c4ccccc4C)cc3n2)cc1,"inconclusive [inhibitor, single point]"
11,Cc1cccc(CCNC(=O)CN(c2ccc(C(C)C)cc2)S(=O)(=O)c2c(C)nn(C)c2C)c1,"inconclusive [inhibitor, single point]"
12,CCc1nnc(NC(=O)CCC(=O)N2CCN(Cc3ccc(F)cc3)CC2)s1,inactive
13,Cc1ccc(O)c(C2=NNC(O)(C(F)(F)F)C2)c1 (stereo not given),"inconclusive [inhibitor, single point]"
14,O=C(c1cc[n+]([O-])cc1)N1CCCC(N2CCN(c3cccc(C(F)(F)F)c3)CC2)C1 (stereo not given),active: 10.3 µM
15,Cc1ccc(-c2csc(=Nc3cccnc3)n2CCCn2ccnc2)cc1C,active: 16.4 µM
16,Cc1ccccc1C1CCCN(C(=O)c2cc(COc3c(F)cccc3F)on2)C1 (stereo not given),active: 23.1 µM
17,O=C(Nc1ccccc1)c1cc(C2CCCCN2C(=O)OCc2ccccc2)on1 (stereo not given),inactive
18,COc1ccc(-c2onc(C)c2-c2cnn(-c3ccccc3)c2)c(O)c1C,"inconclusive [inhibitor, partial curve, poor fit]"
19,Oc1c(CN2CCOCC2)cc(CN2CCOCC2)c(O)c1CN1CCOCC1,inactive
20,COc1ccc(C(=O)NC2CCCc3c2cnn3-c2cccc(C)c2C)c(OC)n1 (stereo not given),active: 10.3 µM
21,Cc1ccc(OCC(=O)Nc2nc(-c3ccc(Br)cc3)ns2)cc1C,"inconclusive [inhibitor, single point]"
22,COc1ccc2nc(Nc3nc(C)c(CCC(C)C)c(=O)[nH]3)nc(C)c2c1,"inconclusive [inhibitor, single point]"
